Consider 50 molecules from publication PMC6919601, “Identification of Plasmodium dipeptidyl aminopeptidase allosteric inhibitors by high throughput screening” (PLoS ONE, 2019).

About 230 (0.21%) of roughly 110,000 compounds showed an effect of 50% or more. This is one part of the list.
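Note: 30 min substrate incubation versus DMSO and 10 µM JCP410 controls.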

For the assay, the target named is DPAP1 (Plasmodium falciparum, UniProt Q8IIJ9). In words: primary screen, percent inhibition; read by cleavage of a fluorogenic dipeptide substrate; higher = more effect of the substance. Details: species or system P. falciparum D10 trophozoite lysates; single well.
DPAP1, sequence (Q8IIJ9 whole entry, looked up): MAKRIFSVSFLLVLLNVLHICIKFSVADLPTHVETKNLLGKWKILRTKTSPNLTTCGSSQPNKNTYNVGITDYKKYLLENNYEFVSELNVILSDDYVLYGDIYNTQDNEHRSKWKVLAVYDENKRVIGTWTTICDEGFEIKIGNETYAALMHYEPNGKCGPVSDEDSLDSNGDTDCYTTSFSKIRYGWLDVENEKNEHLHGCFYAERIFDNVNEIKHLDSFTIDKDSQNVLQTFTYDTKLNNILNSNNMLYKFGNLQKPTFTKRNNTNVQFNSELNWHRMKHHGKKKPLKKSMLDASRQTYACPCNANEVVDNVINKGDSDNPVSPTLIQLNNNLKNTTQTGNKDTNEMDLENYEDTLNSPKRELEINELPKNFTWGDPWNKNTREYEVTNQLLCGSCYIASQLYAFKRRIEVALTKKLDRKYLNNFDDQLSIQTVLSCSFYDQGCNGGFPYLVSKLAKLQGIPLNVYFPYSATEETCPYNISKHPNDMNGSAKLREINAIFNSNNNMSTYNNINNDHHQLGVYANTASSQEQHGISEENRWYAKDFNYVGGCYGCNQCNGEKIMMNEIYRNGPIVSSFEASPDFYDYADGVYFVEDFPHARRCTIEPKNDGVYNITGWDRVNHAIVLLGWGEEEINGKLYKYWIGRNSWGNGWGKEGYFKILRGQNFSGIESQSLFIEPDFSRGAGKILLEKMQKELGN
Consider `COc1cccc(-c2nnc3n(CCc4ccccc4)c(=O)c4ccccc4n23)c1`, for which the “% Inhibition @ 10 uM” value was 0.00665%. On to `CCCn1c(CCCNC(=O)Cc2ccccc2)nc2ccccc21`, for which the “% Inhibition @ 10 uM” value is reported as -8.16%. In the case of `COC(=O)c1ccc(/N=C2/S/C(=C\c3cc(Cl)c(O)c(OC)c3)C(=O)N2C)cc1` it was 3.29%; in that of `Cc1nnc(N2C(=O)c3oc4ccccc4c(=O)c3C2c2cccc(Cl)c2)s1` (centres unmarked), 2.16%; in that of `O=C(Nc1nnc(C2CCCCC2)s1)c1ccc2ccccc2c1`, -1.93%. In the case of `O=C(NC1CCN(Cc2ccccc2)CC1)c1cc2c(=O)oc3ccccc3c2s1` it was 1.08%.

Regarding `COCCN1C(=O)c2ccccc2C(C(=O)NCCN2CCOCC2)C1c1ccc(F)cc1` (centres unmarked), the “% Inhibition @ 10 uM” value came out at 1.26%. As to `Cc1cc(=O)oc2c3c(ccc12)O/C(=C/C=C/c1ccccc1)C3=O`, the “% Inhibition @ 10 uM” value was -0.812%. In the case of `CC(C)CC(=O)Nc1ccc(C(=O)c2ccccc2)cc1` it was 2.5%; in that of `Nc1c(C(=O)Nc2cccc(C(F)(F)F)c2)sc2nc3c(cc12)C(=O)CCC3`, 2.43%; in that of `CCS(=O)(=O)N1CCC(C(=O)NCc2ccc(F)cc2Cl)CC1`, -6.75%. For the molecule `CCN(CC)CCN(C)CC1CC=CCC1` (centres unmarked), the “% Inhibition @ 10 uM” value is 1.62%. In the case of `Cc1ccccc1NC(=O)C1CC=CCC1C(=O)N(c1ccccc1)c1ccccc1` (centres unmarked), the “% Inhibition @ 10 uM” value amounted to 6.03%. With `CC(=O)N/C(=C\c1ccc(F)cc1)C(=O)N(C)C` the figure was -3.26%; with `CSc1nnc(-c2ccc(Cl)cc2Cl)o1`, -2.18%. With `O=C(NCCc1ccc(Cl)cc1)C1CCN(c2nn3cc(-c4ccc(F)cc4)nc3s2)CC1` the figure was 2.62%. In the case of `CCCc1[nH]nc2c1C(c1cccc3ccccc13)C(C#N)=C(N)O2` (centres unmarked) it was 5.24%. As for `COc1ccc(C2N3CC(C)(C)CN23)cc1` (centres unmarked), the “% Inhibition @ 10 uM” value is listed as -3.5%.

Regarding `CN(C)c1ccnc2sc3c(O)ncnc3c12`, the “% Inhibition @ 10 uM” value is 3.18%.

Consider `Cn1c2ccccc2c2cnn(CC(=O)N3CCC(Cc4ccccc4)CC3)c(=O)c21`, for which the “% Inhibition @ 10 uM” value is -0.23%.

With `Cc1cc(-c2ccco2)n(CC(=O)NCCN(C)C)n1`, the “% Inhibition @ 10 uM” value was 1.63%. In the case of `CC(C)(C)/N=c1\c(N)c(O)oc2ccccc12` it was -0.25%; in that of `COc1ccccc1NC(=O)/C=C\C(=O)O`, 1.63%. Take `CCOc1ccc(C2C(C#N)=C(N)N(c3ccccc3)C3=C2C(=O)CCC3)cc1` (centres unmarked): the “% Inhibition @ 10 uM” value is recorded as -1.64%. With `CCOc1ccc(C(=O)Nc2ccc(S(=O)(=O)NC(C)(C)C)cc2)cc1` the figure was 13.5%; with `O=C1CC(c2cccc(Cl)c2Cl)C2=C(CC(c3ccc(F)cc3)CC2=O)N1` (centres unmarked), 6.91%. In the case of `Clc1ccc(-c2onc3ccc(Cl)cc23)cc1` it was -2.2%.

Regarding `COc1ccc(S(=O)(=O)N(CC(=O)Nc2ccc3c(c2)OCO3)c2ccc(F)cc2)cc1OC`, the “% Inhibition @ 10 uM” value is -1.61%. In the case of `Cc1[nH]nc2c1C(c1cccc(OCc3ccc(Cl)cc3)c1)C(C#N)=C(N)O2` (centres unmarked) it was -0.68%; in that of `COc1ccc(C2C(C#N)=C(N)Oc3c2c(C)nn3-c2cccc(Cl)c2)cc1OC` (centres unmarked), 0.343%.

Take `CC1=C(C(=O)Nc2ccccc2)SCCO1`: the “% Inhibition @ 10 uM” value was -3.94%. Consider `O=C(NCc1cccnc1)c1cc(-c2ccccc2)nc2ccccc12`, for which the “% Inhibition @ 10 uM” value is -1.89%. With `CCOc1ccc(C(=O)Nc2cc(Cl)ccc2C)cc1`, the “% Inhibition @ 10 uM” value is -6.02%. With `O=C(NC1(C(F)(F)F)C(=O)Nc2c1c(=O)[nH]c(=O)n2-c1ccc(F)cc1)c1cccnc1` (centres unmarked) the figure was -7.18%.

Take `C=CCNC(=S)Nc1[nH]nc2nc(C)cc(C)c12`: the “% Inhibition @ 10 uM” value is on record as 2.18%. In the case of `COc1ccc(CCNC(=O)c2ccc(CNc3nc(S)nc4ccccc34)cc2)cc1OC` it was 5.43%; in that of `CCN(CC)C(=O)c1ccc(S(=O)(=O)c2ccc(Cl)c(Cl)c2)cc1`, 4.55%. Consider `COc1cccc(C2C3=C(O)c4ccccc4C3=Nc3c2c(=O)n(C)c(=O)n3C)c1OC` (centres unmarked), for which the “% Inhibition @ 10 uM” value is listed as 5.05%. With `CCOc1cc(C2C3=C(O)CC(C)(C)CC3=NC(C)=C2C(=O)N2CCCCC2)ccc1O` (centres unmarked), the “% Inhibition @ 10 uM” value came to 1.86%. Consider `CCC(C)N1C(=O)C(=O)N(C2CCCCC2)C1=O` (centres unmarked), for which the “% Inhibition @ 10 uM” value was -2.77%.

For the molecule `Brc1ccc(NC(c2ccccc2)c2ccncc2)cc1` (centres unmarked), the “% Inhibition @ 10 uM” value was found to be 4.17%. As to `Cc1cccc(CCNC(=O)c2ccc(C/N=c3\c(O)c(O)\c3=N/C3CCCC3)cc2)c1`, the “% Inhibition @ 10 uM” value is on record as 1.63%. With `Cc1cc(C)c2c(N)c(C(=O)NCc3ccco3)sc2n1` the figure was -5.38%. In the case of `CC(NC(=O)c1ccc(Br)cc1)c1ccc2c(c1)OCCO2` (centres unmarked) it was -1.51%; in that of `COc1cccc2sc(N(CCN(C)C)C(=O)c3ccc(C(=O)c4ccccc4)cc3)nc12`, 3.7%; in that of `COc1cccc(C2C(=O)N(C3CCC(C)CC3)CC(=O)N2CCC2=CCCCC2)c1OC` (centres unmarked), 7.37%. With `COC(=O)[C@@H]1C[C@@H](O)CN1Cc1ccsc1` the figure was -1.2%; with `COc1ccc(CN2CCN(Cc3c[nH]c4ccccc34)CC2)c(OC)c1`, 1.64%. In the case of `Cc1nn(C)c(C)c1CNC(=O)c1cc2nc(-c3cccs3)cc(C(F)(F)F)n2n1`, the “% Inhibition @ 10 uM” value came to 6.65%.

As for `COCCCNC(=O)CSc1[nH]c(-c2cc(OC)c(OC)c(OC)c2)nc1-c1ccc(F)cc1`, the “% Inhibition @ 10 uM” value was 1.85%.
